{
  "source": "PubChem BioAssay (Tox21)",
  "key": {"[1]": {"test": "qHTS assay to identify small molecule agonists of the endoplasmic reticulum stress response signaling pathway - cell viability counter screen (AID 1159517; calls by dose curve; note: nearly all actives have a fitted effect of over 50% in size)", "procedure,_shortened": "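Cytotoxicity of test compounds toward ESRE-bla HeLa cells was assessed after 5 hr exposure. The luminescent CellTiter-Glo signal was measured 30 min after reagent addition.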"}, "[2]": {"test": "qHTS assay to identify small molecule antagonists of the retinoid-related orphan receptor gamma (ROR-gamma) signaling pathway - cell viability counter screen (AID 1159520); note: nearly all actives have a fitted effect of over 50% in size", "procedure,_shortened": "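Tet-on ROR gamma CHO cells (1,000/well) were plated 4 hr, given compounds in DMSO for 2 hr at 37 C, then induced with 1 uM final doxycycline for 16 hr. Viability was read as ATP by CellTiter-Glo luminescence after 30 min.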"}, "[3]": {"test": "qHTS assay to identify small molecule agonists of the AP-1 signaling pathway (AID 1159526; calls by dose curve; for activation: % is set by controls: 0 for no effect and ±100 for the full control effect)", "details": "ME-180 AP-1-bla reporter, beta-lactamase FRET ratio, 5 h"}, "[4]": {"molecular_target": "Retinoic acid receptor RXR-alpha (Homo sapiens) (UniProt P19793)", "sequence (P19793 whole entry, looked up)": "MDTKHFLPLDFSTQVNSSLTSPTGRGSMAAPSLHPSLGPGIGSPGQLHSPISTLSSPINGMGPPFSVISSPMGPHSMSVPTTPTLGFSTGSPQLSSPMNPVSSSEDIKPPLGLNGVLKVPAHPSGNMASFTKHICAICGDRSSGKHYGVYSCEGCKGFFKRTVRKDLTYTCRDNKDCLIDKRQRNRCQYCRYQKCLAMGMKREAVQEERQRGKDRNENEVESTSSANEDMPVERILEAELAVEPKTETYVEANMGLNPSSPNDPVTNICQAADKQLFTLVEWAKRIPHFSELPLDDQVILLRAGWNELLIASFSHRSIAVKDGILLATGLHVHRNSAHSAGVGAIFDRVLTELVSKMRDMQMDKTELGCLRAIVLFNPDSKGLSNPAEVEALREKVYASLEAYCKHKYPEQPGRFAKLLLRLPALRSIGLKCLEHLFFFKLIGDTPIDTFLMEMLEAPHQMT", "test": "qHTS assay to identify small molecule agonists of the RXR signaling pathway (AID 1159527; calls by dose curve; note: nearly all actives have a fitted effect of over 35% in size; for activation: % is set by controls: 0 for no effect and ±100 for the full control effect)", "details": "HEK293T RXRa-UAS-bla, beta-lactamase ratio, 16 h; activation: at 76.8 µM (top of the series) unless noted", "procedure,_shortened": "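Cells plated at 2,000/well, rested 5 hr at 37 C, pin-dosed with DMSO compound solutions, incubated 16 hr, then loaded with B/G FRET substrate for 2 hr at RT before dual-emission fluorescence reading.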"}, "[5]": {"test": "qHTS assay to identify small molecule antagonists of the retinoid acid receptor (RAR) signaling pathway - cell viability counter screen (AID 1159551); note: nearly all actives have a fitted effect of over 35% in size", "procedure,_shortened": "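Measured by luminescent ATP detection, viability reflects C3RL4 cells treated 6 h at 37 C with test chemicals in the presence of 1 uM (final) retinol.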"}, "[6]": {"test": "qHTS assay to identify small molecule antagonists of the estrogen related receptor (ERR) signaling pathway from Tox21 library - cell viability counter screen (AID 1224834); note: nearly all actives have a fitted effect of over 30% in size", "procedure,_shortened": "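Seeded ERR cells were rested 6 h at 37 C/5% CO2 before compounds, positive and negative controls or DMSO were added. Incubation continued for 17.5 h, and viability was then quantified by CellTiter-Fluor fluorescence.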"}, "[7]": {"test": "qHTS assay to identify small molecule agonists of the constitutive androstane receptor (CAR) signaling pathway - cell viability counter screen (AID 1224836); note: nearly all actives have a fitted effect of over 45% in size", "procedure,_shortened": "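Cells were seeded and incubated 4 hrs. Compounds were added across 15 concentrations together with PK11195 at 0.75 uM final. Plates were incubated 23 hrs at 37 C. CellTiter-Fluor was added and fluorescence measured.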"}, "[8]": {"test": "qHTS assay to identify small molecule antagonists of the constitutive androstane receptor (CAR) signaling pathway - cell viability counter screen (AID 1224837); note: nearly all actives have a fitted effect of over 45% in size", "procedure,_shortened": "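To flag cytotoxic false antagonists, HepG2 hCAR/CYP2B6-2.2kb cells were treated 23 hr with 15-concentration compound series and 50 nM CITCO at 37 C/5% CO2; CellTiter-Fluor fluorescence was the measured end point.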"}, "[9]": {"test": "qHTS assay to identify small molecule agonists of the AP-1 signaling pathway - cell viability counter screen (AID 1159525; calls by dose curve; note: nearly all actives have a fitted effect of over 55% in size)", "procedure,_shortened": "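Each titration point was normalised to DMSO and tetra n-octyl ammonium bromide controls. The read was Cell Titer Glo luminescence after 30 min at RT, following 5 h compound exposure of ME-180 AP-1-bla cells at 37 °C.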"}, "[10]": {"test": "qHTS assay to identify small molecule agonists of the RXR signaling pathway - cell viability counter screen (AID 1159529); note: nearly all actives have a fitted effect of over 50% in size", "procedure,_shortened": "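Steps: seed RXR-alpha-UAS-bla HEK 293T cells in assay medium containing 2% charcoal-stripped FBS; incubate 5 hr; add compounds in DMSO; incubate 16 hr at 37 C; after the bla read, add CellTiter-Glo and read luminescence at 30 min.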"}, "[11]": {"test": "qHTS assay to identify small molecule agonists of the retinoic acid receptor (RAR) signaling pathway (AID 1159553); for activation: % is set by controls: 0 for no effect and ±100 for the full control effect", "details": "C3RL4 RARE luciferase reporter, agonist, 6 h; activation: at 73.3 µM (top of the series) unless noted", "procedure,_shortened": "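6 hr compound exposure (DMSO vehicle) of overnight-plated C3RL4 RARE-luc cells at 37 C; luminescence quantified after 30 min RT with luciferase reagent.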"}, "[12]": {"molecular_target": "Luciferin 4-monooxygenase (Photinus pyralis) (UniProt P08659)", "sequence (P08659 whole entry, looked up)": "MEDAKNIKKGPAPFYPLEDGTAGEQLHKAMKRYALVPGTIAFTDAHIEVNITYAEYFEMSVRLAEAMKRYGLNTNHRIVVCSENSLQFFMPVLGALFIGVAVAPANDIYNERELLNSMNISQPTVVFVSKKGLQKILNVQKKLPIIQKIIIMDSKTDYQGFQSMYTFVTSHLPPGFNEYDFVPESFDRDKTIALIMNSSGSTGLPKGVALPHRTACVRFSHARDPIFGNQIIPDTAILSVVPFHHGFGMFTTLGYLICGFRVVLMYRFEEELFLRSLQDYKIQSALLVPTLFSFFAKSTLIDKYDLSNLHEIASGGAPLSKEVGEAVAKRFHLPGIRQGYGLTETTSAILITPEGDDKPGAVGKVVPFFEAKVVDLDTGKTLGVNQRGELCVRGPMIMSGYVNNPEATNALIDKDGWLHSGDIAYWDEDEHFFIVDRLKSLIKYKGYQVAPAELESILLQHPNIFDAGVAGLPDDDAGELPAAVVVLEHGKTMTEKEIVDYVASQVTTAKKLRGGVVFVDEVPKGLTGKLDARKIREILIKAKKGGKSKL", "test": "qHTS assay to identify small molecule inhibitors of firefly luciferase (AID 1224835); note: nearly all actives have a fitted effect of over 25% in size", "procedure,_shortened": "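Quantitative HTS format; KM concentrations of both substrates. Purified P. pyralis FLuc activity quantified from luminescence images.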"}, "[13]": {"test": "qHTS assay to identify small molecule antagonists of the retinoic acid receptor (RAR) signaling pathway (AID 1159552; note: nearly all actives have a fitted effect of over 50% in size)", "procedure,_shortened": "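Retinol at 1 uM final stimulated RARE-luciferase expression in C3RL4 cells exposed to test compounds for 6 hr at 37 C. Reduced luminescence, read 30 min after detection reagent, indicated pathway antagonism.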"}, "[14]": {"details": "activation: at 76.8 µM (top of the series) unless noted"}},
  "note": "Values joined by “and” are separate entries in the source; they are usually repeats but may differ in a detail not shown here. Equal values may be shown once. Inconclusive means that the source gave no clear call. Such entries were picked first, then a sample of the others. For part of these data: A potency beside an inconclusive call is a rough fit, not a confirmed value. More than one record can exist for a structure, and the calls need not agree. Active and inactive are the calls of the source. Unless noted, calls come from the whole dose curve; as a rule, active = well fitted curve in the direction sought with a large enough effect in the repeat runs; inconclusive = weak or mixed curves; inactive = no such curve, though single readings can be large; an effect the other way counts as inactive or inconclusive. Potency is the fitted concentration of half-maximal effect; tags give direction and shape of the fitted curve or compound fluorescence and quenching.",
  "data": [
    {"smiles": "C[C@@H]1C[C@@H]([C@H](O)CC2CC(=O)NC(=O)C2)C(=O)[C@@H](C)C1", "values": [
      {"measurement": "Potency", "setting": "[1]", "result": "inconclusive: 42.9 µM [cytotoxic, partial curve, poor fit]"},
      {"measurement": "Potency", "setting": "[2]", "result": "inconclusive: 483 nM [cytotoxic, full curve] and inconclusive: 686 nM [cytotoxic, full curve] and inconclusive: 168 nM [cytotoxic, full curve]"},
      {"measurement": "Potency", "setting": "[3]; [14]", "result": "inconclusive: 3.09 µM [inhibitor, partial curve, poor fit]"},
      {"measurement": "activation", "setting": "[3]; at 35.3 µM (top of the series)", "result": "inconclusive: -16.8%"},
      {"measurement": "activation", "setting": "[3]; at 76.8 µM (top of the series)", "result": "inconclusive: -21.3%"},
      {"measurement": "Potency", "setting": "[4]", "result": "inconclusive: 218 nM [inhibitor, partial curve, poor fit] and inconclusive: 219 nM [inhibitor, full curve] and inconclusive: 169 nM [inhibitor, full curve]"},
      {"measurement": "Potency", "setting": "[5]", "result": "inconclusive: 1.53 µM [rising, full curve] and inconclusive: 1.54 µM [rising, full curve] and inconclusive: 750 nM [rising, full curve]"},
      {"measurement": "Potency", "setting": "[6]", "result": "active: 430 nM and active: 154 nM and active: 266 nM"},
      {"measurement": "Potency", "setting": "[7]", "result": "inconclusive: 1.36 µM [cytotoxic, full curve] and active: 969 nM and inconclusive: 531 nM [cytotoxic, full curve]"},
      {"measurement": "Potency", "setting": "[8]", "result": "inconclusive: 0.75 µM [cytotoxic, full curve]"}
    ]},
    {"smiles": "CCCCCCCCCCCCn1cc[n+](C)c1", "values": [
      {"measurement": "Potency", "setting": "[1]", "result": "inconclusive: 8.79 µM [cytotoxic, full curve, poor fit]"},
      {"measurement": "Potency", "setting": "[2]", "result": "inconclusive: 34.5 µM [cytotoxic, partial curve] and inconclusive: 34.7 µM [cytotoxic, partial curve]"},
      {"measurement": "Potency", "setting": "[9]", "result": "inconclusive: 61.7 µM [cytotoxic, single point] [middle of 4 runs]"},
      {"measurement": "activation", "setting": "[3]; [14]", "result": "inconclusive: -18.8%"},
      {"measurement": "Potency", "setting": "[10]", "result": "inconclusive: 31.4 µM [cytotoxic, partial curve, poor fit]"},
      {"measurement": "Potency", "setting": "[5]", "result": "inconclusive: 68.9 µM [cytotoxic, single point] [middle of 5 runs]"}
    ]},
    {"smiles": "COc1ccc(C(c2ccc(OC)cc2)C(Cl)(Cl)Cl)cc1", "values": [
      {"measurement": "Potency", "setting": "[1]", "result": "inconclusive: 0.0345 µM [cytotoxic, full curve, poor fit]"},
      {"measurement": "Potency", "setting": "[2]", "result": "inconclusive: 30.5 µM [cytotoxic, partial curve]"},
      {"measurement": "Potency", "setting": "[9]", "result": "inconclusive: 0.487 µM [cytotoxic, single point]"},
      {"measurement": "Potency", "setting": "[3]; [14]", "result": "inconclusive: 19.4 µM [cytotoxic, partial curve, poor fit]"},
      {"measurement": "Potency", "setting": "[4]", "result": "inconclusive: 24.4 µM"},
      {"measurement": "Potency", "setting": "[10]", "result": "inconclusive: 38.7 µM [cytotoxic, partial curve, poor fit]"},
      {"measurement": "Potency", "setting": "[11]", "result": "inactive"},
      {"measurement": "Potency", "setting": "[12]", "result": "inconclusive: 56.1 µM [inhibitor, partial curve, poor fit]"}
    ]},
    {"smiles": "Cc1cc(C(C)(C)c2cc(C)c(O)c(C)c2)cc(C)c1O", "values": [
      {"measurement": "Potency", "setting": "[1]", "result": "active: 59.6 µM"},
      {"measurement": "Potency", "setting": "[2]", "result": "inconclusive: 66.3 µM [cytotoxic, single point]"},
      {"measurement": "Potency", "setting": "[9]", "result": "inconclusive: 47.4 µM [cytotoxic, partial curve]"},
      {"measurement": "Potency", "setting": "[3]; [14]", "result": "inconclusive: 21.2 µM [falling, partial curve]"},
      {"measurement": "activation", "setting": "[4]", "result": "inconclusive: -21.5%"},
      {"measurement": "Potency", "setting": "[10]", "result": "active: 47.4 µM"},
      {"measurement": "Potency", "setting": "[5]", "result": "inconclusive: 74.4 µM [cytotoxic, partial curve, poor fit]"},
      {"measurement": "Potency", "setting": "[11]", "result": "inconclusive: 16.7 µM [inhibitor, full curve]"},
      {"measurement": "Potency", "setting": "[12]", "result": "inactive"},
      {"measurement": "Potency", "setting": "[7]", "result": "inconclusive: 46.9 µM [cytotoxic, partial curve, poor fit]"},
      {"measurement": "Potency", "setting": "[8]", "result": "inconclusive: 59.1 µM [cytotoxic, partial curve]"}
    ]},
    {"smiles": "C[C@]12Cc3nonc3C[C@@H]1CC[C@@H]1[C@@H]2CC[C@@]2(C)[C@H]1CC[C@]2(C)O", "values": [
      {"measurement": "Potency", "setting": "[1]", "result": "inconclusive: 23.9 µM [cytotoxic]"},
      {"measurement": "Potency", "setting": "[2]", "result": "inconclusive: 23.7 µM [cytotoxic, partial curve, poor fit]"},
      {"measurement": "Potency", "setting": "[9]", "result": "inconclusive: 21.3 µM [cytotoxic, partial curve]"},
      {"measurement": "Potency", "setting": "[3]; [14]", "result": "inconclusive: 21.3 µM [activator, partial curve, poor fit]"},
      {"measurement": "Potency", "setting": "[4]", "result": "inconclusive: 23.9 µM"},
      {"measurement": "Potency", "setting": "[10]", "result": "active: 21.3 µM"},
      {"measurement": "Potency", "setting": "[13]", "result": "inconclusive: 23.7 µM [inhibitor, partial curve]"},
      {"measurement": "Potency", "setting": "[6]", "result": "active: 29.8 µM"},
      {"measurement": "Potency", "setting": "[7]", "result": "inactive"}
    ]},
    {"smiles": "Clc1ccccc1-c1ccccc1Cl", "values": [
      {"measurement": "Potency", "setting": "[1]", "result": "inconclusive: 31.4 µM [cytotoxic, partial curve, poor fit]"},
      {"measurement": "Potency", "setting": "[2]", "result": "inconclusive: 78.1 µM [cytotoxic, partial curve]"},
      {"measurement": "Potency", "setting": "[9]", "result": "inconclusive: 70.2 µM [cytotoxic, single point]"},
      {"measurement": "Potency", "setting": "[3]; [14]", "result": "inconclusive: 31.4 µM [falling, partial curve]"},
      {"measurement": "Potency", "setting": "[4]", "result": "inconclusive: 78.8 µM [inhibitor, single point]"},
      {"measurement": "Potency", "setting": "[10]", "result": "inconclusive: 78.8 µM [cytotoxic, single point]"},
      {"measurement": "Potency", "setting": "[5]", "result": "inconclusive: 78.1 µM [cytotoxic, partial curve]"}
    ]}
  ]
}
